# The supplement of paper PMC4604168 (melanoma cell lines)
# The other results are listed elsewhere or left out. Repeats are few or missing, and single values can be far off.
# System: WM3619
# Experiment: cell count relative to DMSO control; melanoma cells; higher = more viable cells
# Settings: library dose: standard library concentration; 72 h
# 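Further: cells treated in 1,536-well plates, then fixed and DAPI-stained, with nuclei counted from automated high-throughput microscope images.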
row,SMILES,cell count [%]
1,"COc1cc([C@@H]2c3cc4c(cc3[C@@H](O[C@@H]3O[C@@H]5CO[C@@H](C)O[C@H]5[C@H](O)[C@H]3O)[C@H]3COC(=O)[C@H]23)OCO4)cc(OC)c1O [etoposide] + NCC(=O)Nc1ccc(-n2nc(C(F)(F)F)cc2-c2ccc3c(ccc4ccccc43)c2)cc1 [OSU03012] (first compound 0.1 µM, partner dose 5 µM)",74.6
2,"COc1cc([C@@H]2c3cc4c(cc3[C@@H](O[C@@H]3O[C@@H]5CO[C@@H](C)O[C@H]5[C@H](O)[C@H]3O)[C@H]3COC(=O)[C@H]23)OCO4)cc(OC)c1O [etoposide] + C=CCn1c(=O)c2cnc(Nc3ccc(N4CCN(C)CC4)cc3)nc2n1-c1cccc(C(C)(C)O)n1 [MK1775] (first compound 0.1 µM, partner dose 0.1 µM)",31.5
3,"C[C@]1(O)C[C@@H](c2nc(-c3ccc4ccc(-c5ccccc5)nc4c3)c3c(N)nccn32)C1 + COc1cc(Nc2ncc(F)c(Nc3ccc4c(n3)NC(=O)C(C)(C)O4)n2)cc(OC)c1OC [Tamatinib] (first compound 2 µM, partner dose 2 µM)",71.1
4,"COc1cc([C@@H]2c3cc4c(cc3[C@@H](O[C@@H]3O[C@@H]5CO[C@@H](C)O[C@H]5[C@H](O)[C@H]3O)[C@H]3COC(=O)[C@H]23)OCO4)cc(OC)c1O [etoposide] + COc1cc(Nc2ncc(F)c(Nc3ccc4c(n3)NC(=O)C(C)(C)O4)n2)cc(OC)c1OC [Tamatinib] (first compound 0.1 µM, partner dose 2 µM)",70.2
5,"CCN(CC)CCNC(=O)c1c(C)[nH]c(/C=C2\C(=O)Nc3ccc(F)cc32)c1C [sunitinib] + CO[C@@H]1[C@H](N(C)C(=O)c2ccccc2)C[C@H]2O[C@]1(C)n1c3ccccc3c3c4c(c5c6ccccc6n2c5c31)C(=O)NC4 [Midostaurin] (first compound 2 µM, partner dose 0.4 µM)",52.7
6,"C[C@]1(O)C[C@@H](c2nc(-c3ccc4ccc(-c5ccccc5)nc4c3)c3c(N)nccn32)C1 + CO[C@@H]1[C@H](N(C)C(=O)c2ccccc2)C[C@H]2O[C@]1(C)n1c3ccccc3c3c4c(c5c6ccccc6n2c5c31)C(=O)NC4 [Midostaurin] (first compound 2 µM, partner dose 0.4 µM)",75.9
7,"Cn1cnc2c(F)c(Nc3ccc(Br)cc3Cl)c(C(=O)NOCCO)cc21 [selumetinib] + O=C(O)c1ccc(-c2c[nH]c3ncc(-c4ccccc4)cc23)cc1C1CCCC1 [GSK650394] (first compound 0.075 µM, partner dose 0.8 µM)",68.6
8,"COc1cc([C@@H]2c3cc4c(cc3[C@@H](O[C@@H]3O[C@@H]5CO[C@@H](C)O[C@H]5[C@H](O)[C@H]3O)[C@H]3COC(=O)[C@H]23)OCO4)cc(OC)c1O [etoposide] + Cc1cc(N2CCOCC2)cc2[nH]c(-c3c(NC[C@@H](O)c4cccc(Cl)c4)cc[nH]c3=O)nc12 [BMS536924] (first compound 0.1 µM, partner dose 1 µM)",85.4
9,"CCN(CC)CCNC(=O)c1c(C)[nH]c(/C=C2\C(=O)Nc3ccc(F)cc32)c1C [sunitinib] + O=C(CCCCCCC(=O)Nc1ccccc1)NO [vorinostat] (first compound 2 µM, partner dose 0.4 µM)",62.4
10,"COc1cc([C@@H]2c3cc4c(cc3[C@@H](O[C@@H]3O[C@@H]5CO[C@@H](C)O[C@H]5[C@H](O)[C@H]3O)[C@H]3COC(=O)[C@H]23)OCO4)cc(OC)c1O [etoposide] + NC(=O)Nc1cc(-c2cccc(F)c2)sc1C(=O)N[C@H]1CCCNC1 [AZD7762] (first compound 0.1 µM, partner dose 0.1 µM)",18
11,"COc1cc([C@@H]2c3cc4c(cc3[C@@H](O[C@@H]3O[C@@H]5CO[C@@H](C)O[C@H]5[C@H](O)[C@H]3O)[C@H]3COC(=O)[C@H]23)OCO4)cc(OC)c1O [etoposide] + OCCn1cc(-c2cnc3nnn(Cc4ccc5ncccc5c4)c3n2)cn1 [PF04217903] (first compound 0.1 µM, partner dose 5 µM)",68.4
12,"COc1cc([C@@H]2c3cc4c(cc3[C@@H](O[C@@H]3O[C@@H]5CO[C@@H](C)O[C@H]5[C@H](O)[C@H]3O)[C@H]3COC(=O)[C@H]23)OCO4)cc(OC)c1O [etoposide] + O=C(O)c1ccc(-c2c[nH]c3ncc(-c4ccccc4)cc23)cc1C1CCCC1 [GSK650394] (first compound 0.1 µM, partner dose 0.8 µM)",66.1
